Source: the antibiotic and cytotoxicity screens of Wong et al. (2023)
Some of the results follow.

Each molecule was assayed on HSkMC (human skeletal muscle cells) (assay: cytotoxicity call (relative viability < 0.9)). Conditions: 10 µM.
For `C[C@H](CO)N1C[C@H](C)[C@H](CN(C)S(=O)(=O)c2cn(C)cn2)Oc2ccc(NC(=O)Cc3ccccc3)cc2C1=O`, the cytotoxicity call was “inactive”.
With `C[C@@H]1CCCCO[C@H](CN(C)C(=O)Nc2ccc3c(c2)OCO3)[C@H](C)CN([C@@H](C)CO)C(=O)c2cc(NC(=O)C3CCCCC3)ccc2O1` the cytotoxicity call was “inactive”.
`O=C(N[C@H](c1ccc(Cl)cc1)c1ccsc1)C1CCN(Cc2ccc(Oc3ccccc3)cc2)CC1` was tested, and the cytotoxicity call was “inactive”.
For `O=C(C[C@@H]1CC[C@H](NC(=O)c2cnccn2)[C@H](CO)O1)NCc1ccccc1F`, the cytotoxicity call was “inactive”.
With `O=CN[C@H](Cc1ccccc1)C(=O)O` the cytotoxicity call was “inactive”.
With `C[C@@H]1CN([C@@H](C)CO)C(=O)c2cc(NC(=O)CCN3CCOCC3)ccc2O[C@@H]1CN(C)C(=O)NC1CCCCC1` the cytotoxicity call was “inactive”.
For `N#Cc1cccnc1N1CCCNC(=O)C1`, the cytotoxicity call was “inactive”.
For `C[C@@H]1CN([C@@H](C)CO)C(=O)c2cc(NS(=O)(=O)c3ccccc3)ccc2O[C@@H](C)CCCCO[C@H]1CN(C)S(=O)(=O)c1cn(C)cn1`, the cytotoxicity call was “inactive”.
`CCCN1C[C@H](C)[C@H](OC)CN(C)C(=O)c2cc(NS(=O)(=O)c3cn(C)cn3)ccc2OC[C@@H]1C` was tested, and the cytotoxicity call was “inactive”.
With `C[C@@H]1CN([C@@H](C)CO)C(=O)c2cc(NC(=O)NC3CCCCC3)ccc2O[C@@H](C)CCCCO[C@@H]1CN(C)C(=O)c1ccccc1` the cytotoxicity call was “inactive”.
`C[C@@H]1CCCCO[C@H](CN(C)C(=O)Nc2ccc3c(c2)OCO3)[C@H](C)CN([C@H](C)CO)C(=O)c2cc(NC(=O)Cc3ccccc3)ccc2O1` was tested, and the cytotoxicity call was “inactive”.
With `C[C@@H]1CN([C@H](C)CO)C(=O)c2cc(-c3ccc(C(=O)N(C)C)cc3)cnc2O[C@H]1CN(C)C(=O)c1ccncc1` the cytotoxicity call was “inactive”.
`C[C@@H]1CN([C@@H](C)CO)C(=O)c2cc(C#CCN(C)C)cnc2O[C@@H]1CN(C)Cc1cccc(C(=O)O)c1` was tested, and the cytotoxicity call was “inactive”.
In the case of `C[C@@H]1CCCCO[C@@H](CN(C)S(=O)(=O)c2ccccc2)[C@H](C)CN([C@H](C)CO)C(=O)c2cc(NS(=O)(=O)c3cn(C)cn3)ccc2O1`, the cytotoxicity call is reported as “inactive”.
In the case of `COc1ccc(CN(C)C[C@@H]2Oc3ccc(NC(=O)Nc4cccc5ccccc45)cc3C(=O)N([C@@H](C)CO)C[C@H]2C)cc1`, the cytotoxicity call is reported as “inactive”.
`COc1ccc(S(=O)(=O)N(C)C[C@@H]2OCCCC[C@H](C)Oc3ccc(NC(=O)Nc4ccc(C(F)(F)F)cc4)cc3C(=O)N([C@H](C)CO)C[C@@H]2C)cc1` was tested, and the cytotoxicity call was “inactive”.
For `COc1cc(O)cc(OC)c1O[C@@H]1O[C@H](CO)[C@@H](O)[C@H](O)[C@H]1O`, the cytotoxicity call was “inactive”.
With `C[C@@H]1CCCCO[C@@H](CN(C)CC2CCCCC2)[C@@H](C)CN([C@H](C)CO)C(=O)c2cc(NC(=O)c3ccncc3)ccc2O1` the cytotoxicity call was “inactive”.
With `Cc1noc(C)c1NC(=O)Nc1cccc2c1O[C@@H](CN(C)S(=O)(=O)c1ccccc1)[C@@H](C)CN([C@H](C)CO)C2=O` the cytotoxicity call was “inactive”.
`C[C@H]1CN([C@@H](C)CO)C(=O)CCCn2nncc2CO[C@H]1CN(C)C(=O)Nc1ccc2c(c1)OCCO2` was tested, and the cytotoxicity call was “inactive”.
`C[C@@H]1CN([C@H](C)CO)C(=O)c2cc(NC(=O)Cc3cn(C)c4ccccc34)ccc2O[C@H]1CN(C)C(=O)Nc1ccc(C(F)(F)F)cc1` was tested, and the cytotoxicity call was “inactive”.
In the case of `Cc1noc(C)c1S(=O)(=O)Nc1ccc2c(c1)C(=O)N([C@@H](C)CO)C[C@H](C)[C@@H](CN(C)C(=O)Nc1ccccc1)OCCCC[C@@H](C)O2`, the cytotoxicity call is reported as “inactive”.
In the case of `Cc1noc(C)c1S(=O)(=O)Nc1cccc2c1O[C@@H](CN(C)C(=O)NC(C)C)[C@@H](C)CN([C@H](C)CO)C2=O`, the cytotoxicity call is reported as “inactive”.
With `COc1ccc(CN(C)C[C@H]2Oc3c(NS(=O)(=O)c4cn(C)cn4)cccc3C(=O)N([C@@H](C)CO)C[C@@H]2C)cc1` the cytotoxicity call was “inactive”.
In the case of `C[C@H]1CCCCO[C@H](CN(C)Cc2ccc(Cl)c(Cl)c2)[C@@H](C)CN([C@@H](C)CO)C(=O)c2cc(NC(=O)CCC(F)(F)F)ccc2O1`, the cytotoxicity call is reported as “inactive”.
In the case of `COc1ccc(CN(C)C[C@H]2OCCCC[C@@H](C)Oc3ccc(NS(=O)(=O)c4ccc(OC)cc4)cc3C(=O)N([C@@H](C)CO)C[C@@H]2C)cc1`, the cytotoxicity call is reported as “inactive”.
With `C#CCCCCCCCCCCC[C@H](O)C[C@H](O)CO.C=CCCCCCCCCCCC[C@H](O)C[C@H](O)CO` the cytotoxicity call was “inactive”.

What follows are molecules tested on HepG2 (assay: cytotoxicity call (relative viability < 0.9)). Conditions: 10 µM.
In the case of `CC[C@@H](CO)NCCN[C@@H](CC)CO`, the cytotoxicity call is reported as “inactive”.
With `CN(C)C(=O)CN1CCC[C@]2(CCN(S(=O)(=O)c3cn(C)cn3)C2)C1` the cytotoxicity call was “inactive”.
For `C[C@H](CO)N1C[C@H](C)[C@@H](CN(C)C(=O)Nc2ccc3c(c2)OCO3)Oc2ccc(NC(=O)Cn3cnnn3)cc2CC1=O`, the cytotoxicity call was “inactive”.
For `COCC(=O)N(C)C[C@H]1Oc2cc(C#CC(C)(C)O)ccc2S(=O)(=O)N([C@H](C)CO)C[C@H]1C`, the cytotoxicity call was “inactive”.
`Cc1noc(C)c1NC(=O)Nc1cccc2c1O[C@@H](CN(C)Cc1ccc(C(=O)Nc3ccccc3N)cc1)[C@H](C)CN([C@H](C)CO)C2=O` was tested, and the cytotoxicity call was “inactive”.
With `C[C@H]1CN([C@@H](C)CO)C(=O)CCCn2nncc2CO[C@H]1CN(C)C(=O)Nc1cccc(Oc2ccccn2)c1` the cytotoxicity call was “inactive”.
In the case of `CN(C)CCCNC(=O)[C@H]1[C@H](CO)[C@H]2Cn3c(ccc(-c4ccncc4)c3=O)[C@@H]1N2C(=O)C1CC1`, the cytotoxicity call is reported as “inactive”.
In the case of `CCSc1nc(=O)c(C)n[nH]1`, the cytotoxicity call is reported as “inactive”.
`CCCC#Cc1cnc2c(c1)C(=O)N([C@@H](C)CO)C[C@H](C)[C@H](CN(C)S(=O)(=O)c1cn(C)cn1)O2` was tested, and the cytotoxicity call was “inactive”.
For `C[C@H](NC(=O)C[C@@H]1C=C[C@@H](NC(=O)CN2CCOCC2)[C@@H](CO)O1)c1ccccc1`, the cytotoxicity call was “inactive”.
In the case of `NC(=O)N1c2ccccc2C=Cc2ccccc21`, the cytotoxicity call is reported as “inactive”.
In the case of `C[C@@H]1CCCCO[C@@H](CN(C)S(C)(=O)=O)[C@H](C)CN([C@H](C)CO)C(=O)c2cc(NS(=O)(=O)c3cn(C)cn3)ccc2O1`, the cytotoxicity call is reported as “inactive”.
For `COCC#Cc1ccc2c(c1)O[C@@H](CN(C)S(=O)(=O)c1ccc(F)cc1)[C@@H](C)CN([C@H](C)CO)S2(=O)=O`, the cytotoxicity call was “inactive”.
`C[C@H](CO)N1C[C@H](C)[C@H](CN(C)S(=O)(=O)c2cn(C)cn2)Oc2ccc(NC(=O)Cc3ccccc3)cc2C1=O` was tested, and the cytotoxicity call was “inactive”.
In the case of `C[C@@H]1CCCCO[C@H](CN(C)C(=O)Nc2ccc3c(c2)OCO3)[C@H](C)CN([C@@H](C)CO)C(=O)c2cc(NC(=O)C3CCCCC3)ccc2O1`, the cytotoxicity call is reported as “inactive”.
For `O=C(N[C@H](c1ccc(Cl)cc1)c1ccsc1)C1CCN(Cc2ccc(Oc3ccccc3)cc2)CC1`, the cytotoxicity call was “inactive”.
With `O=C(C[C@@H]1CC[C@H](NC(=O)c2cnccn2)[C@H](CO)O1)NCc1ccccc1F` the cytotoxicity call was “inactive”.
For `O=CN[C@H](Cc1ccccc1)C(=O)O`, the cytotoxicity call was “inactive”.
`C[C@@H]1CN([C@@H](C)CO)C(=O)c2cc(NC(=O)CCN3CCOCC3)ccc2O[C@@H]1CN(C)C(=O)NC1CCCCC1` was tested, and the cytotoxicity call was “inactive”.
With `N#Cc1cccnc1N1CCCNC(=O)C1` the cytotoxicity call was “inactive”.
For `C[C@@H]1CN([C@@H](C)CO)C(=O)c2cc(NS(=O)(=O)c3ccccc3)ccc2O[C@@H](C)CCCCO[C@H]1CN(C)S(=O)(=O)c1cn(C)cn1`, the cytotoxicity call was “inactive”.
For `CCCN1C[C@H](C)[C@H](OC)CN(C)C(=O)c2cc(NS(=O)(=O)c3cn(C)cn3)ccc2OC[C@@H]1C`, the cytotoxicity call was “inactive”.
`C[C@@H]1CN([C@@H](C)CO)C(=O)c2cc(NC(=O)NC3CCCCC3)ccc2O[C@@H](C)CCCCO[C@@H]1CN(C)C(=O)c1ccccc1` was tested, and the cytotoxicity call was “inactive”.
With `C[C@@H]1CCCCO[C@H](CN(C)C(=O)Nc2ccc3c(c2)OCO3)[C@H](C)CN([C@H](C)CO)C(=O)c2cc(NC(=O)Cc3ccccc3)ccc2O1` the cytotoxicity call was “inactive”.
With `C[C@@H]1CN([C@H](C)CO)C(=O)c2cc(-c3ccc(C(=O)N(C)C)cc3)cnc2O[C@H]1CN(C)C(=O)c1ccncc1` the cytotoxicity call was “inactive”.
For `C[C@@H]1CN([C@@H](C)CO)C(=O)c2cc(C#CCN(C)C)cnc2O[C@@H]1CN(C)Cc1cccc(C(=O)O)c1`, the cytotoxicity call was “inactive”.
With `C[C@@H]1CCCCO[C@@H](CN(C)S(=O)(=O)c2ccccc2)[C@H](C)CN([C@H](C)CO)C(=O)c2cc(NS(=O)(=O)c3cn(C)cn3)ccc2O1` the cytotoxicity call was “inactive”.
With `COc1ccc(CN(C)C[C@@H]2Oc3ccc(NC(=O)Nc4cccc5ccccc45)cc3C(=O)N([C@@H](C)CO)C[C@H]2C)cc1` the cytotoxicity call was “inactive”.
In the case of `COc1ccc(S(=O)(=O)N(C)C[C@@H]2OCCCC[C@H](C)Oc3ccc(NC(=O)Nc4ccc(C(F)(F)F)cc4)cc3C(=O)N([C@H](C)CO)C[C@@H]2C)cc1`, the cytotoxicity call is reported as “inactive”.
In the case of `COc1cc(O)cc(OC)c1O[C@@H]1O[C@H](CO)[C@@H](O)[C@H](O)[C@H]1O`, the cytotoxicity call is reported as “inactive”.
`C[C@@H]1CCCCO[C@@H](CN(C)CC2CCCCC2)[C@@H](C)CN([C@H](C)CO)C(=O)c2cc(NC(=O)c3ccncc3)ccc2O1` was tested, and the cytotoxicity call was “inactive”.
With `Cc1noc(C)c1NC(=O)Nc1cccc2c1O[C@@H](CN(C)S(=O)(=O)c1ccccc1)[C@@H](C)CN([C@H](C)CO)C2=O` the cytotoxicity call was “inactive”.
With `C[C@H]1CN([C@@H](C)CO)C(=O)CCCn2nncc2CO[C@H]1CN(C)C(=O)Nc1ccc2c(c1)OCCO2` the cytotoxicity call was “inactive”.
In the case of `C[C@@H]1CN([C@H](C)CO)C(=O)c2cc(NC(=O)Cc3cn(C)c4ccccc34)ccc2O[C@H]1CN(C)C(=O)Nc1ccc(C(F)(F)F)cc1`, the cytotoxicity call is reported as “active”.
For `Cc1noc(C)c1S(=O)(=O)Nc1ccc2c(c1)C(=O)N([C@@H](C)CO)C[C@H](C)[C@@H](CN(C)C(=O)Nc1ccccc1)OCCCC[C@@H](C)O2`, the cytotoxicity call was “inactive”.
With `Cc1noc(C)c1S(=O)(=O)Nc1cccc2c1O[C@@H](CN(C)C(=O)NC(C)C)[C@@H](C)CN([C@H](C)CO)C2=O` the cytotoxicity call was “inactive”.
For `COc1ccc(CN(C)C[C@H]2Oc3c(NS(=O)(=O)c4cn(C)cn4)cccc3C(=O)N([C@@H](C)CO)C[C@@H]2C)cc1`, the cytotoxicity call was “inactive”.
For `C[C@H]1CCCCO[C@H](CN(C)Cc2ccc(Cl)c(Cl)c2)[C@@H](C)CN([C@@H](C)CO)C(=O)c2cc(NC(=O)CCC(F)(F)F)ccc2O1`, the cytotoxicity call was “inactive”.
For `COc1ccc(CN(C)C[C@H]2OCCCC[C@@H](C)Oc3ccc(NS(=O)(=O)c4ccc(OC)cc4)cc3C(=O)N([C@@H](C)CO)C[C@@H]2C)cc1`, the cytotoxicity call was “inactive”.
In the case of `C#CCCCCCCCCCCC[C@H](O)C[C@H](O)CO.C=CCCCCCCCCCCC[C@H](O)C[C@H](O)CO`, the cytotoxicity call is reported as “inactive”.
